Assay results published in the supplement of paper PMC11417369.
± gives the standard deviation of the averaged measurements. The list shows a part of the results.

System: PfAP2-G AP2 domain (GST-tagged)
Assay: gcPBM binding intensity (ln(normalized median fluorescence intensity)); higher = stronger DNA binding
Method in brief: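 An Agilent 4 × 180k array carrying primer-extended double-stranded 36-bp intergenic genomic probes and negative controls received GST-tagged P. falciparum DNA-binding domains expressed in E. coli, about 25 μg on average, for 1 h. The binding buffer contained 1× PBS, 1% milk, 0.2 mg/ml BSA, 0.5% salmon testes DNA and 0.03% Triton X-100. Binding intensity is the top Masliner-normalised natural-log median intensity across replicate spots of either probe orientation, read after Alexa488 anti-GST antibody staining and a 488 nm scan.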

Sequence | gcPBM binding intensity (ln)
AAAAAATTATACCTTTGTACATAAATAAAATATTAT [XGTACX_site418] | 10.9 ± 0.65
AAGATTACTTATATATGTACACATAATACAAATGTC [XGTACX_site520] | 11.4 ± 0.83
TCTGTTAATATTTATACACACATATATATATATATA [CACACA_site1139] | 10.2 ± 0.5
AATAAAAGAAGACAGAGTACACAGGTTGTATTTTCC [XGTACX_site7208] | 11.4 ± 0.84
TGTGCATAAATTTATGCACACATAAAAAAAAAAAAA [CACACA_site8954] | 10.2 ± 0.48
ATAATATATACTATATGTACATATCTTTTCCTCTTT [XGTACX_site5553] | 10.9 ± 0.49
TTTTTCATAAAAAAATAAAAAAAATTAACATAGAAA [XGTACX_negctrl_site11] | 9.95 ± 0.26
TTTTAGAGTGGTATATATTAATTTTTAATAAAAAAA [CACACA_negctrl_site1652] | 10.1 ± 0.23
TATGTATTTTTTAAGTGTACCTATATATATATATAT [XGTACX_site7934] | 11.2 ± 0.86
TGGGAAGGGTGGGAAACTTTATCAAAAACTTATTAC [GTGCAC_negctrl_site16] | 10.3 ± 0.23
TATAATAATAATTATTGTACGATTAGGTTAATTCAT [XGTACX_site1984] | 11.1 ± 0.7
AGAAAGGTGGTATTAAAAGAATAACCTATGAATAAA [GTGCAC_negctrl_site325] | 10.3 ± 0.38
ATAGTATCTGGTAGCTGTACGAGTCGTAGAGTGTAG [XGTACX_site2030] | 11.3 ± 0.83
TATATTGAAAATAAAACATGCAATCACTCATACATA [TGCATGCA_site248] | 9.75 ± 0.071
CAACAATTTCGTCATACACACATTCAGAATCTATAT [CACACA_site7171] | 10.2
ATGTACCTATTTCATACACACACACCCACAAACAAA [CACACA_site8232] | 11.4 ± 1
TTTTTTTAACGGTGTGCACACAATATACAGAAAAAA [CACACA_site1415] | 10.8 ± 0.35
TATATACATTTATATACACACCTATATTTATTTATA [CACACA_site7014] | 9.95 ± 0.057
ATTATATATATTTATGCACACAAAATATATTATATA [CACACA_site9244] | 10.1 ± 0.3
AAAATATAATATATTACACACATATATTTTATAAGT [CACACA_site668] | 9.79 ± 0.12
TATACATTTATGTACACACACATATAGGTATATTTA [CACACA_site7408] | 11.5 ± 0.8
TATGTTGGTTCTTTTAGTACATAATTACTAAATGTA [XGTACX_site8616] | 11.1 ± 0.79
AAAACATACATATATACACACATATATATATATATA [CACACA_site1852] | 10 ± 0.28

Sequence | gcPBM binding intensity (ln)
CAAACTACAAAATTTCGTACGCATATATTTCAAGTA [XGTACX_site5154] | 11.1 ± 0.7
TTTAAACGTTATATAGTGCATGTCATATTTTATTAT | 9.85 ± 0.014
TACGTAATAATATGCACACAAATAAACTTTATAAAT [CACACA_site3501] | 10.2 ± 0.26
CAAAAAAGTAAAACGTGTACATATATACATAAAAAT [XGTACX_site5639] | 11.5 ± 0.81
CTTTTTTATATCTCTACACACATTTATAACAATTTG [CACACA_site1398] | 10.14 ± 0.057
GGCAATGATTTTAGGTGTACTTAAAAATCAAATTAA [XGTACX_site8587] | 11.5 ± 0.95
ATTCTAATCATATACACACCCATATATATATATATA [CACACA_site1774] | 10.1 ± 0.15
TGCACAAAATTATGCACACACCTAAAATTAATTTTT [CACACA_site5596] | 10.2 ± 0.21
TAATTTCTTATGTGCTATCTTATATAGAATTAATTT [CACACA_negctrl_site1726] | 10 ± 0.11
TATAAAAAATAAAATACACACACATATATATATATA [CACACA_site8365] | 9.95 ± 0.3
ATGGCTAAAAGTTGCACACACACAAAAAAAAAAAAA [CACACA_site3289] | 10.2 ± 0.55
AGCAGTCAGCAGGACAGTACACAGTAGCCAGGAAAT [XGTACX_site4877] | 11.1 ± 0.67
AAAAAAAAAATTTAGGTGCATACAAATAAATTATAT [GTGCAC_site9521] | 9.725 ± 0.007
GGCATACACGGACACACACACACACCGACATATATA [CACACA_site4493] | 11.3 ± 0.88
ATTATATAACAAAATAGTACATATATTTATTACATC [XGTACX_site336] | 11.1 ± 0.76
TATATATTAATATGCACACACAAGAAGTAATTATAA [CACACA_site3193] | 10.3 ± 0.13
GATATCAAAAAGATGGGTACATATATTTAAGTTCAT [XGTACX_site3822] | 11.3 ± 0.76
TATATTATTAATTAGGGTACAAAAAAAAAATTTTTT [XGTACX_site7762] | 11.2 ± 0.73
ATATATATATATATATATATAATTTTTTTTGTTTTT [TGCATGCA_negctrl_site453] | 10 ± 0.81
TAGGAAAAGAAAAGCACACACATAAATAGATATATA [CACACA_site6382] | 9.84 ± 0.014
TTAAATAGAAATAAGACTAACAATGAACCAAAAAAA [CACACA_negctrl_site991] | 10.2 ± 0.16
TTTTGAAAAAGTTGCACACAAAATTTAAAAAAAAAA [CACACA_site1632] | 10.4 ± 0.44
TTTAAAAATAAAAGTACACACATAAACATATTGCAC [CACACA_site6784] | 11.6 ± 0.97

Sequence | gcPBM binding intensity (ln)
TGCAACAAAATAAACACACACACACTAACACAAAAA [CACACA_site7567] | 10.2 ± 0.18
ATAAGCAATAAAAAAACATGCATATTATTATCAACA [TGCATGCA_site1027] | 9.89 ± 0.32
TTTTCATTTGAAAGTCGTACAAGTTCGAAAAAAGGA [XGTACX_site6840] | 11.6 ± 1.2
CTTAAAAAAACCTTAACACACATAAACTATAATTTA [CACACA_site3055] | 9.975 ± 0.021
ATATTATATATATGTGCACACAAAAGATATATATAT [CACACA_site2125] | 10.5 ± 0.38
AGTTAATGTTTATGTACACACGGTGGGTATATATTT [CACACA_site5785] | 11.3 ± 0.76
ATCAAGCACGGACACACACACACACCCAGACCCCCA [CACACA_site4360] | 11.2 ± 0.83
AAGTTAACACAACAGGTGCAAGAAAAGTTTTTAATG | 10.1 ± 0.14
TCTTTAATATATAGTGCATGTAAATTTTACAATAAT [TGCATGCA_site242] | 10.2 ± 0.28
TATGGTATATACAACACACACACATATGTATATATA [CACACA_site927] | 10.1 ± 0.22
AATAATAATAATAATAGTACATATTATGAATATGAT [XGTACX_site5730] | 10.8 ± 0.69
ATAATAAGGTTAAGCACACATATTACAGATATAACT [CACACA_site5791] | 10 ± 0.18
AAATATTATGTGGCAAGTACATAAAGAAAATGCTTA [XGTACX_site3356] | 11.2 ± 0.84
TAATTTTTGAAACACACACACATATATATATATATA [CACACA_site94] | 10.1 ± 0.32
GATCTACATGAAAGGACACACAAATATATATATATA [CACACA_site84] | 10.8 ± 0.65
ATAAATATGGAGCACACACACATAAACATACCTATA [CACACA_site6336] | 10.4 ± 0.16
TTAAAAATGATTGAATGTACAGATTAATATAATTTT [XGTACX_site7394] | 10.7 ± 0.28
GTAGAGGATTAAGAATGTACACATAAATACATATTT [XGTACX_site8874] | 11.2 ± 0.41
AATTATACATACATATATATATTTATATATATATAT [GTGCAC_negctrl_site462] | 9.69 ± 0.11
GTTACATACAGATACACACACATATATATATATATA [CACACA_site4652] | 10.3 ± 0.41
TTTTTTTTTTTTTGTGCATGTAGATTTATTGTTATA [TGCATGCA_site582] | 9.88 ± 0.56
TTTAAATATATATTTAGTACTTATTCTTAAAATTTT [XGTACX_site624] | 10.9 ± 0.73
AAAAAAGAATAGCACACACACATATATAAATATAAA [CACACA_site4518] | 10 ± 0.18

Sequence | gcPBM binding intensity (ln)
ATTAAAAAAAAAAGTATACACACTTCTTAATGTCAA [CACACA_site1244] | 10.2 ± 0.11
TTATATCCCGTCCTTTATTAAAAAAATTTTTTTTCT [TGCATGCA_negctrl_site582] | 10.4 ± 0.21
ATGGGTTGTTCAAATAGTACATATGTAGCCCACCAT [XGTACX_site3735] | 11.4 ± 0.9
AAAAAAAAATATATATAAAATTAAAAAATGTAATAT [GTGCAC_negctrl_site581] | 9.48 ± 0.31
AACAAATAAACAAAATTGGAAAATAAAAATATCAAA [CACACA_negctrl_site1125] | 9.64 ± 0.2
TCGTATATGGATTTTGCACACAATTTTAATTTAAAT [CACACA_site4635] | 10.15 ± 0.071
ATGATTTGTCTGAAATGTACATATATATATATATAT [XGTACX_site5247] | 10.9 ± 0.53
TTTTTTTTTTTTTTAATTAATTACCTTTGAATGTGT [CACACA_negctrl_site393] | 9.88 ± 0.42
TAATAATTTTATAAAGTGCATAAAAATAAAAATTTT | 9.93 ± 0.042
ATATATATGGATGGACGTACGTATGTATGTAATTTC [XGTACX_site4135] | 11.3 ± 0.64
TTCCAACATTGTTTTTGTACATAATTAACTGTTATT [XGTACX_site5224] | 11 ± 0.4
CTTAAAAATAACTGCACACAAAAATAAATACCTTAT [CACACA_site2793] | 10.15 ± 0.014
TAATATTTATAAAATAGTACACAGAAAAAGCATTTT [XGTACX_site8948] | 11.4 ± 0.88
ATTATTTTTTTATGTTGTACATAATATTTTTTAAAA [XGTACX_site1666] | 11.3 ± 0.87
GAAAAAATATATAAATGTACATATAATAATATCATA [XGTACX_site6788] | 11 ± 0.52
ATATATATTTTATTATGTACATATAAATATTACACA [XGTACX_site4062] | 11.3 ± 0.7
AAAAAAATATATATTACACACATATATACCTATATA [CACACA_site5688] | 9.98 ± 0.22
ATATATATTAATAGGTGTACATATAAAGTGTTATGT [XGTACX_site5464] | 11.4 ± 0.71
ATATTTAATGTTAATTGTACATATTATATATATATA [XGTACX_site6095] | 11.1 ± 0.55
GATTATACAAAATATACACACGTGTAGACAAATATT [CACACA_site4785] | 10.3 ± 0.23
